From PubChem BioAssay AID686979 (National Center for Advancing Translational Sciences (NCATS), 2013)
Out of some 420,000 compounds screened, about 50,000 (12%) were called active. Inconclusive results, whose numbers are uncertain, are shown with a selection of clear calls. Calls follow the shape of the dose curve; as a rule, active = well fitted inhibition curve with a large enough effect; inconclusive = small, poorly fitted or top-dose-only effect; inactive = flat fitted curve, though single readings scatter. No potency is given beside an inconclusive call; the fits are too rough.
% is scaled to controls: 0 for no effect and ±100 for the full control effect; potency is read from the fitted curve at half-maximal effect; tags tell the direction and shape of the fitted curve.

Assay: qHTS for Inhibitors of human tyrosyl-DNA phosphodiesterase 1 (TDP1): qHTS in cells in presence of CPT; also: nearly all actives have a fitted effect of over 55% in size
Settings: chicken DT40 Tdp1-/-;hTDP1 cells + 20 nM CPT, ATP luminescence, 48 h; activity change, negative = growth inhibition: at 46.2 µM (top of the series)
Procedure, shortened: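 Chicken DT40 Tdp1-/- cells stably complemented with human TDP1 were seeded at 400 cells/well in medium containing 20 nM camptothecin, exposed to pin-transferred compounds, and grown at 37 °C for at least 48 hr. Viability was read as ATP luminescence.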
For `CCC1=C(c2ccc(C)cc2)S(=O)(=O)N=C1N1CCC(C(=O)NCc2ccccc2Cl)CC1`, the Potency was inconclusive [inhibitor, single point].
In the case of `C=C(C)c1cccc(C(C)(C)NC(=O)Nc2cc(C)ccn2)c1`, the Potency is reported as inconclusive [inhibitor, single point].
In the case of `COc1ccc(OC)c(S(=O)(=O)Nc2ccc(Oc3ccccc3)cc2)c1`, the Potency is reported as inconclusive [inhibitor, partial curve].
In the case of `CC(=O)Nc1ccc(C(=O)/C=C/c2ccco2)cc1`, the Potency is reported as active: 20.6 µM.
With `CCC(C(=O)O)c1ccccc1` (stereo not drawn) the “activity change, negative = growth inhibition” value was inactive: -0.0635%.
With `CCCCCCCCOC(=O)C[N+](C)(C)C/C=C(/C)Cl` the Potency was active: 16.4 µM.
In the case of `CO[C@H]1[C@H](NC(=O)c2ccsc2)c2ccccc2C12CCN(Cc1cc3ccccc3o1)CC2`, the activity change, negative = growth inhibition is reported as inactive: -11.4% [at 9.04 µM].
For `COc1ccc(CN(Cc2cccnc2)S(=O)(=O)c2ccc(-n3cnnn3)c(C)c2)cc1OC`, the Potency was inconclusive [inhibitor, single point].
With `CC(C)Cn1c(CN2C(=O)c3ccccc3C2=O)nc2ccccc2c1=O` the “activity change, negative = growth inhibition” value was inactive: 4%.
For `NC(=O)C1(N2CCCCC2)CCN(C(=O)c2cc(COc3c(F)cccc3F)on2)CC1`, the Potency was inconclusive [inhibitor, partial curve, poor fit].
For `CC(C)c1nc2ccc(NC(=O)C3CCCCC3)cc2[nH]1`, the Potency was inconclusive [inhibitor, partial curve, poor fit].
For `CC1CCCN(C2=C(NS(=O)(=O)c3ccc(Br)cc3)C(=O)c3ccccc3C2=O)C1` (stereo not drawn), the Potency was inconclusive [inhibitor, single point].
In the case of `CCCCCOC(=O)c1ccc(OC(=O)c2sc3ncn(Cc4cccc(F)c4)c(=O)c3c2C)cc1`, the “activity change, negative = growth inhibition” value is reported as inactive: -9.91%.
In the case of `C#CCN1C(=O)C(O)(CC(=O)c2cccc(OC)c2)c2ccccc21` (stereo not drawn), the Potency is reported as active: 5.8 µM.
With `CCOC(=O)c1cc(S(=O)(=O)N2CCN(c3ccc(F)cc3)CC2)[nH]n1` the Potency was active: 16.4 µM.
For `CCC(C)n1c(=S)[nH]c2c(sc3ccc([N+](=O)[O-])cc32)c1=O` (stereo not drawn), the Potency was inconclusive [inhibitor, single point].
With `COc1ccc(N2CCN(C(=O)CSc3nnc4c(C)cc5c(C)cc(C)cc5n34)CC2)cc1` the Potency was inconclusive [inhibitor, single point].
With `O=C1CSC(=S)N1` the “activity change, negative = growth inhibition” value was inactive: -17.1%.
In the case of `COc1ccc(OC)c(CNc2sc3c(c2C(=O)Nc2cc(OC)ccc2OC)CCCC3)c1`, the Potency is reported as inconclusive [inhibitor, single point].
For `Nc1c(-c2cccc(Cl)c2)cnn1-c1cccc(C(F)(F)F)c1`, the Potency was inconclusive [inhibitor, partial curve, poor fit].
For `CC(C)CN(/C=N/c1sc2c(c1C#N)CCCCC2)CC(C)C`, the Potency was active: 20.6 µM.
With `CC[C@]12c3[nH]c4cc(CCC(=O)N(C)C)ccc4c3CCN1C(=O)[C@@H](CC(=O)NCCCOC)C[C@@H]2C(=O)N1CCN(C(=O)C2CC2)CC1` the activity change, negative = growth inhibition was inconclusive: -31.4% [inhibitor].
With `COc1ccc2nc3cc(Cl)ccc3c(C#N)c2c1` the “activity change, negative = growth inhibition” value was inactive: 14.2%.
For `COc1ccc(OC2C(=O)N(Cc3ccc(F)cc3)C2c2cc(OC)c(OC)c(OC)c2)cc1` (stereo not drawn), the Potency was inconclusive [inhibitor, single point].
For `O=[N+]([O-])c1ccc(-c2nc(Cl)c3c(n2)CCCC3)o1`, the Potency was active: 9.2 µM.
With `CCOC(=O)c1cnc2ccc(OCC)cc2c1Nc1cc(Cl)c(OC)cc1OC` the Potency was active: 14.6 µM.
With `CC(C)CC(=O)NC(=S)Nc1ccccc1N1CCCC1` the Potency was inconclusive [inhibitor, single point].
With `CCN(CC)C(=O)/C(=C\c1cccc([N+](=O)[O-])c1)NC(=O)c1ccco1` the “activity change, negative = growth inhibition” value was inactive: -15.5%.
With `CC(=O)N1CCCc2cc(S(=O)(=O)N3CCCC(C(=O)Nc4cccc(Cl)c4C)C3)ccc21` (stereo not drawn) the Potency was active: 16.4 µM.
In the case of `O=C(C[C@H]1C[C@H](C(=O)N2CCCCC2)[C@@]2(CCc3ccccc3)c3[nH]c4cc(-c5ccco5)ccc4c3CCN2C1=O)NCc1ccco1`, the Potency is reported as inconclusive [inhibitor, single point].
For `CN(c1ccccc1)S(=O)(=O)c1ccc(C(=O)Nc2nnc(C3=COCCO3)o2)cc1`, the Potency was inconclusive [inhibitor, single point].
In the case of `Nc1nc2ccccc2n1Cc1ccc(Cl)c(Cl)c1`, the Potency is reported as inconclusive [inhibitor, single point].
In the case of `COc1cc(OC)c(OC)cc1CN1CCN(Cc2ccc(C(F)(F)F)cc2)CC1`, the Potency is reported as inconclusive [inhibitor, single point].
With `CCc1c(C)nc(N2CCN(c3ccc(OC)cc3)CC2)[nH]c1=O` the Potency was inconclusive [inhibitor, single point].
With `Cc1cc(OC(C)C(=O)N2CCN(c3ccc(F)cc3)CC2)c2c(C)cc(=O)oc2c1` (stereo not drawn) the Potency was inconclusive [inhibitor, partial curve].
For `N#Cc1ccc(-c2cccnc2)nc1SCC(=O)c1ccccc1`, the Potency was inconclusive [inhibitor, single point].
For `Cc1nc2cnc(N3CCNCC3)nc2n(CCc2ccccc2)c1=O`, the Potency was inconclusive [inhibitor, single point].
In the case of `CC(C)CNC(=O)C(=O)NCC1OCCCN1S(=O)(=O)c1ccc2c(c1)OCCO2` (stereo not drawn), the “activity change, negative = growth inhibition” value is reported as inactive: 5.16%.
For `COc1ccc(-n2c(NN)nc3sc4c(c3c2=O)CCCC4)cc1`, the “activity change, negative = growth inhibition” value was inactive: -3.39%.
In the case of `CS(=O)(=O)N1CCN(c2ccccc2NC(=O)Nc2cccc(Cl)c2)CC1`, the Potency is reported as inconclusive [inhibitor, single point].
In the case of `Cc1ccc(NC(=O)c2c(C(F)(F)F)nn(C)c2SCc2cccc(C(F)(F)F)c2)cc1C`, the Potency is reported as active: 7.31 µM.
For `CCCCOc1ccc(C(=O)NCC(=O)N2CCN(Cc3ccc4c(c3)OCO4)CC2)cc1`, the Potency was inconclusive [inhibitor, partial curve].
In the case of `COC(=O)c1ccc(Cn2c(SCC(=O)N(C)c3ccccc3)nc3ccccc32)cc1`, the Potency is reported as active: 20.6 µM.
